Reference: the supplement of paper PMC10338343
± gives the standard deviation. In all, about 6,600 sequences were measured (“pre-steady-state target cleavage rate”: median about 0.07, highest 2% from about 0.72 on). The entries are a selection whose mix differs from that of the whole data set.

System: MIWI (PIWIL1) piRISC loaded with Kctd7 piRNA (30 nt)
Assay: pre-steady-state target cleavage rate (min^-1); MIWI and MILI are mouse PIWI proteins and EfPiwi is from a freshwater sponge; tags in brackets are library labels; higher = faster piRNA-guided slicing of the target
Details: guide: Kctd7 piRNA 5'p-UGUUAAUCUCUCAGAGAAGGUGACAGUGAU; auxiliary factor: 500 nM mouse GTSF1
Procedure, shortened: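 Sequencing of uncleaved targets, normalised to depth and to weakly complementary targets, was the readout of this Cleave-'n-Seq assay. A transcribed, DNA-blocked target RNA library (0.1 nM) was mixed with 1 nM active affinity-purified piRISC carrying one synthetic guide, with or without 500 nM GTSF1 partner protein, in HEPES–potassium acetate buffer at 33 °C for 0–8 or 0–960 min. Three trials were pooled, k3 was capped at 0.0001 min^-1, and a burst-and-steady-state fit gave the pre-steady-state cleavage rate.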

Row | Sequence | pre-steady-state target cleavage rate
1 | UUCACUGUCACCUUCUCUGAGACAUUAAGA | 0.00752 ± 0.0027
2 | UUCACUGUCACCUUCUCUGAGAGUUUAACA | 0.523 ± 0.073
3 | UAGACUGUCACCUUCUCUGAGAGAUUUUCA | 0.106 ± 0.018
4 | UAGUGACACUCCUUCUGUGAGAGAUUAACA | 0.135 ± 0.013
5 | UAGUGAGUCACCUUCUCUGAGAUGAUUAACA | 0.013 ± 0.007
6 | UAGUGUGUGACCUUCUCUGAGAGAUUAAGA | 0.171 ± 0.032
7 | UAGUGACUCACCUUCUCUGAGAGUUUAUGA | 0.0387 ± 0.013
8 | UAGACUGUCAGCUUCUCUGAGACAUUAACA | 0.00378 ± 0.0026
9 | UAGUGACAGUGCUUCUCUGAGAAAUUAACA | 0.00571 ± 0.0034
10 | AUCACUGUCACCAUCUCUGAGAGAUUAACA | 0.795 ± 0.048
11 | UAGUGACUCAGCUUCUCUGAGAGAUUAAGA | 0.0328 ± 0.007
12 | UACACUGUCACCUAUCUCUGAGAGAUUAACA | 0.519 ± 0.042
13 | UUCACUGUCACCUACUCUGACAGAUUAACA | 0.227 ± 0.021
14 | UAGUGACACAGGAUCUCUGAGAGAUUAACA | 0.00384 ± 0.0015
15 | UAGUGUGUGACCUUCUGUGAGAGAUUAACA | 0.35 ± 0.036
16 | UAGACUGUCACCAUCUCUGAGACAUUAACA | 0.0149 ± 0.0034
17 | UAGUGACACUCCUUCUCUGAGAGAUUAUGA | 0.0116 ± 0.0035
18 | UUCACUGUCAGCUUCUCUGAGUGAUUAACA | 0.023 ± 0.0043
19 | AUCACUGUCACCUUGUCUGUGAGAUUAACA | 0.175 ± 0.013
20 | AUCACAGUCACCUUCUCUGAGAGAUAUUGA | 0.076 ± 0.029
21 | UAGUGACAGUCCUUGUCUGAGAGUUUAACA | 0.00411 ± 0.0029
22 | UUCACUGAGACCUUCUCUGAGAGAUUUUGA | 0.0226 ± 0.0069
23 | UAGUGAGUCACCUUCUCUGAGAGUUAAACA | 0.304 ± 0.047
24 | UAGUGACUCACCAUCUCUCAGAGAUUAACA | 0.00669 ± 0.003

Row | Sequence | pre-steady-state target cleavage rate
25 | UAGACUGUCACCUUCUCUGAGAGAUUAAACA | 0.48 ± 0.043
26 | UACACUGUCACCUAGUCUGAGAGAUUAAGA | 0.0776 ± 0.018
27 | UACACUGUCAGCUUCUCUGAGACAUUAACA | 0.0142 ± 0.0034
28 | AUCACUCACACCUUCUCUGAGAGAUAUUGA | 0.0544 ± 0.021
29 | UUCACUGUCACCUUCUCUGAGUGAAUAACA | 0.0221 ± 0.0057
30 | AUCACUGACACCUUCUCUGAGAGAUUUUGA | 0.15 ± 0.029
31 | UAGACUGUCACCAUUCUCUGAGAGAUUAACA | 0.792 ± 0.055
32 | UAGUGUGUCACCUUCUGUGAGAGAUUUACA | 0.136 ± 0.017
33 | UAGUGAGUCACCUUCUCUGUGAGAUUAUCA | 0.0619 ± 0.013
34 | UAGUCUGUGACCUACUCUGAGAGAUUAACA | 0.496 ± 0.03
35 | UAGUGACAGUCCUUCUCUGAGAGAGUAACA | 0.023 ± 0.0053
36 | UACACAGUCACCUUCUCUCAGAGAUUAACA | 0.115 ± 0.014
37 | UAGUGACACACCUACUCUGAGAGAUAAACA | 0.073 ± 0.0083
38 | UACACUGUCACCUUCACUGAGUGAUUAACA | 0.0291 ± 0.0062
39 | UAGUGUGUCACCUUCUCUGAGAGUAAUUGA [g8:g25:cont:t1A] | 0.0793 ± 0.023
40 | AUCACUGUCACCUUCUCUCUCAGAUUAAGA | 0.00483 ± 0.0037
41 | AUGACUGUGACCUUCUCUGAGAGAUUAACA | 0.641 ± 0.045
42 | UUCACUGUCACCUAGUCUGAGAGAUAUUGA | 0.0365 ± 0.013
43 | UUCACUGUCACCUUCUCUGAGAGUUUUUGA | 0.213 ± 0.048
44 | UAGUGUGUCACCUUCUCUCAGAGAAUAACA | 0.0238 ± 0.0076
45 | UAGUGACACACCUUGUCUCAGAGAUUAACA | 0.00775 ± 0.0029
46 | UUCACUGUCACCUUCACUGAGACAUUAACA | 0.172 ± 0.018
47 | UAGAGUGUCACCUUCUCUGAGAGAAUAACA | 0.366 ± 0.058
48 | UAGUGACACACCUUCUCAGAGAGAUUAACA | 0.175 ± 0.03

Row | Sequence | pre-steady-state target cleavage rate
49 | UACACUGUCACCUUCUCUGAAAGAUUAACA | 0.456 ± 0.029
50 | UUCACUGUCACCUUCUCUGAGAGAUUAAUCA | 0.351 ± 0.038
51 | UAGACUGUCACCUUCUCUGAGAGAUUAAAA | 0.177 ± 0.024
52 | UAGUGACACACCUUCUCAGAGAGAUUAUCA | 0.0516 ± 0.012
53 | UAGUCUCAGACCUUCUCUGAGAGAUUAAGA | 0.0281 ± 0.0056
54 | UAGUCAGUCACCUUCACUGAGAGAUUAACA | 0.401 ± 0.025
55 | UAGUGACUCACCUUCUGUGAGAGAUUAUCA | 0.0148 ± 0.0029
56 | UAGUGUGUCACCUUCUCAGAGAGAUUAAGA | 0.101 ± 0.016
57 | UAGUGAGUCACAUUCUCUGAGAGAUUAACA | 0.69 ± 0.041
58 | AUCACUGUCACCUUCUCUGCGAGAUUAACA | 0.488 ± 0.045
59 | UAGUGACUCACCUUCUCUGAAAGAUUAACA | 0.524 ± 0.025
60 | UAGUCUGUCACCUUCUCUGAGAGUUUUUGA | 0.107 ± 0.026
61 | UUCACUGUCACGUUCUCUGAGAGUUUAACA | 0.161 ± 0.021
62 | UAGACUGUCAGCAUCUCUGAGAGAUUAACA | 0.474 ± 0.04
63 | UAGUCUGUCACGUUCUCUGACAGAUUAACA | 0.0122 ± 0.0037
64 | UAGUGAGUCACCUACUCUGAGAGAUUUUGA | 0.00815 ± 0.0053
65 | UUCACUGUCCACCUUCUCUGAGAGAUUAACA | 0.551 ± 0.045
66 | UAGUGACACACCUUCUGUGAGAGAUUAACA | 0.389 ± 0.032
67 | UUCACUGUCACCUUCUCUGAGAGGAUUAACA | 0.326 ± 0.031
68 | UUCACUGUCACCUUCCUGAGAGAUUAACA | 0.112 ± 0.023
69 | AUCACUGUCACCUAUCUCUGAGAGAUUAACA | 0.651 ± 0.041
70 | UACAGACUCACCUUCUCUGAGAGAUUAUGA | 0.0873 ± 0.014
71 | AUCUCUGUGACCUUCUCUGAGAGAUUAACA | 0.597 ± 0.03
72 | UUCACUGUCACCUUGAGUGAGAGAUUAACA | 0.0167 ± 0.0088
